Measurements taken from PubChem BioAssay AID894 (National Center for Advancing Translational Sciences (NCATS), 2007).
The whole screen tested about 150,000 compounds, of which about 6,500 (4.3%) were called active. The shares of active, inactive and inconclusive entries below differ from those in the screen. Calls come from the whole dose curve; as a rule, active = well fitted inhibition curve with a large enough effect (not every such curve was filed as active); inconclusive = small, poorly fitted or top-dose-only effect, or another doubt; inactive = no such curve, though single readings can be large or run the other way. Potencies of inconclusive entries are left out as doubtful fits. A structure can be active in one record and inactive in another.

Biological target: 15-hydroxyprostaglandin dehydrogenase [NAD(+)] (Homo sapiens) (UniProt P15428)
Experiment: qHTS Assay for Inhibitors of HPGD (15-Hydroxyprostaglandin Dehydrogenase)
Conditions: purified HPGD, NADH fluorescence kinetic, PGE2 substrate; activity change, negative = inhibition: hits give low values
How it was run: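 NADH formation kinetics: reaction with 30 uM PGE2 and 1 mM NAD+ (final), 20 nM enzyme, Tris-HCl pH 8 with Tween 20, after 15 min compound preincubation at room temperature. Fluorescence change, last versus first of five reads.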
% is set by controls: 0 for no effect and ±100 for the full control effect; potency is the fitted concentration of half-maximal effect; tags give direction and shape of the fitted curve.

Chain of UniProt P15428 (P15428 whole entry, looked up): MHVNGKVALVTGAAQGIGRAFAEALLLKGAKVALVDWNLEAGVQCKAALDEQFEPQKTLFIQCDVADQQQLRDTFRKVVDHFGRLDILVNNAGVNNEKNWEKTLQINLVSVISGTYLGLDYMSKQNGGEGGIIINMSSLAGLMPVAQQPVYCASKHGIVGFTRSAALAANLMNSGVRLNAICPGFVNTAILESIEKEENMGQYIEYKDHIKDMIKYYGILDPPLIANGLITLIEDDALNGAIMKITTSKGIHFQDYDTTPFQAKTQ

SMILES | Potency | activity change, negative = inhibition
Cc1ccc(CN2C(=O)/C(=C\c3ccc(C(=O)NCc4cccnc4)cc3)Oc3ccccc32)cc1 | inconclusive [inhibitor, partial curve] | –
Clc1ccsc1-c1csc(-c2cccnc2)n1 | inconclusive [inhibitor, single point] | –
COCCn1c(=O)c(CCc2ccccc2)nc2cnc(N3CCN(C)CC3)nc21 | inconclusive [inhibitor, partial curve] | –
COc1ccc(CC(=O)Nc2ccc(-c3nnc(-c4ccccc4)o3)cc2)cc1 | inconclusive [inhibitor, partial curve] | –
CC1CCCCN1S(=O)(=O)c1ccc(N(C(=O)c2cnccn2)C(C(=O)NC2CCCCC2)c2cccs2)cc1 (stereo not drawn) | – | inactive: -8.2%
CC1CCCCN1Cc1c(O)ccc2c(=O)c(-c3nc4ccccc4s3)c(N)oc12 (stereo not drawn) | inconclusive [inhibitor, partial curve] | –
C/C(=N\NC(=O)c1ccn(C)n1)c1ccc(NC(=O)C2CCCC2)cc1 | active: 14.1 µM | –
CCNc1ccc(Br)cc(C(=O)/C=C/c2ccc(Cl)cc2)c1=O | inconclusive [inhibitor, partial curve] | –
O=c1cc(-c2ccccc2)[nH]c2cc(Cl)ccc12 | – | inactive: -8.38%
CCOC(=O)c1c(NC(=O)CSc2nnc(-c3ccccc3)n2CC)sc(C(C)=O)c1C | active: 20 µM | –
Cc1cccc(CS(=O)(=O)c2nnc([C@H](Cc3ccccc3)NC(=O)OC(C)(C)C)o2)c1 | active: 14.1 µM | –
CCOC(=O)c1c(-c2cccc([N+](=O)[O-])c2)csc1NC(=O)C1CCCCC1 | – | inactive: -9.3%
Cc1cccc(OCC(=O)N/N=C/CC(C)c2ccccc2)c1C (stereo not drawn) | – | inactive: -8.57%
Cc1cccc(CNc2cc(-c3cccc(C#N)c3)ncn2)c1 | inconclusive [inhibitor, partial curve] | –
COc1cc(/C=C/C(=O)CC(=O)/C=C/c2ccc(O)c(OC)c2)ccc1O | active: 14.1 µM | inactive: -20.1%
Cc1ccc(NC(=O)c2cc(C(=O)c3cc(Cl)ccc3O)cn(-c3ccc(C)cc3)c2=O)cc1 | – | inactive: -13.7%
[2H]c1c([2H])c([2H])c(-c2nc(N3CCCCCC3)sc2C(=O)c2ccccc2)c([2H])c1[2H] | – | inactive: -22.6%
O=C(CN(c1ccccc1F)S(=O)(=O)c1ccccc1)N1CCCCCC1 | – | inactive: 2.5%
O=C1C(SCCO)=C(SCCO)C(=O)c2ccccc21 | active: 2.82 µM | –
CCCCCCCC/C=C\CCCCCCCC(=O)OCC(CO)OC(=O)CCCCCCC/C=C\CCCCCCCC (stereo not drawn) | – | inactive: -2.01%
COc1ccc(/C=C/C(=O)Nc2nc(C)c(C(=O)N(C)C)s2)cc1 | inconclusive [inhibitor, partial curve] | –
Cc1ccc(NC(=O)CN2C(=O)S/C(=C\c3cccn3-c3cccc(C(=O)O)c3)C2=O)c(C)c1 | inconclusive [inhibitor, partial curve] | –
CCn1c(SCC(=O)C(C)(C)C)nnc1-c1cnccn1 | inconclusive [inhibitor, single point] | –
CCOc1ccc(NC(=O)c2cn(CC(C)C)c(=O)c3c2c2ccccc2n3C)cc1 | inconclusive [inhibitor, partial curve] | –

SMILES | Potency | activity change, negative = inhibition
CCCn1nc(NC(=O)CC(C)C)c2cc3ccccc3nc21 | inconclusive [inhibitor, single point] | –
COc1cc2c(cc1OC)-c1cc(N3CCCCCC3)nc(=O)n1CC2 | inconclusive [inhibitor, partial curve] | –
CC(=O)Nc1nc2c(c3c1c(=O)oc1ccccc13)CC(C)CC2 (stereo not drawn) | inconclusive [inhibitor, partial curve] | –
Cc1cc(O)c(C)c2c1CC[C@H]1[C@H](C)C(=O)O[C@H]21 | – | inactive: -1.76%
O=S(=O)(Nc1nc2ccccc2nc1Cl)c1ccc2ccccc2c1 | inconclusive [inhibitor, single point] | –
Cc1ccc(SCCNC(=O)c2ccccc2C)cc1 | active: 15.8 µM | –
COC(=O)c1cn(C)c2ccc(S(=O)(=O)N3CCCC3)cc2c1=O | active: 8.91 µM | –
CC(C)=CCOc1cc2oc(=O)ccc2cc1O | inconclusive [inhibitor, partial curve] | –
[O-][n+]1onc2c3cc(-c4ccccc4)nnc3ccc21 | – | inactive: -5.28%
CCn1cc(Br)c(C(=O)NN)n1 | – | inactive: -12.2%
O=C(Nc1ccc(N2CCN(C(=O)c3ccccc3)CC2)c(Cl)c1)c1ccc(Br)o1 | inconclusive [inhibitor, partial curve] | –
CCn1c(=O)c([N+](=O)[O-])c(NCC(O)c2ccccc2)c2ccccc21 (stereo not drawn) | active: 15.8 µM | –
COC(=O)c1nn(-c2ccc3c(c2)CCN3C(C)=O)cc1O | inconclusive [inhibitor, partial curve] | –
Cc1cccc2cc(C#N)c(NCCNC(=S)NCCCN3CCOCC3)nc12 | inconclusive [inhibitor, partial curve] | –
COc1ccc(-c2nnc(SC(C(=O)c3c[nH]c4ccccc34)c3ccccc3)n2N)cc1OC (stereo not drawn) | inconclusive [inhibitor, partial curve] | –
CCOC(=O)c1nn(-c2ccc(Cl)cc2)c2nnc(Cc3ccc(C)cc3)c(=O)n12 | – | inactive: -3.44%
CSc1ccccc1-n1nnnc1SCc1ccccc1 | – | inactive: -30.1%
Cn1c(=O)cc(OCCCC(=O)NC2CCCC2)c2ccccc21 | active: 14.1 µM | –
COc1ccc(CNC(=O)C(c2cccs2)N(C(=O)c2csnn2)C2CC2)cc1 (stereo not drawn) | – | inactive: -7.86%
Nc1ccc2nc(-c3cccs3)[nH]c2c1 | inconclusive [inhibitor, partial curve] | –
C#CCn1c(=NC(=O)c2sc3ccccc3c2Cl)sc2cc(S(N)(=O)=O)ccc21 | inconclusive [inhibitor, partial curve] | –
Cc1ccc(C2Nc3ccccc3-c3nc4ccccc4n32)o1 (stereo not drawn) | inconclusive [inhibitor, partial curve] | –
Cc1cc(C)c2c(N)c(C(=O)N3CCN(c4ncccn4)CC3)sc2n1 | inconclusive [inhibitor, single point] | –
CC(C)c1ccc(C(=O)CC2(O)C(=O)N(CN3CCOCC3)c3ccccc32)cc1 (stereo not drawn) | – | inactive: -9.46%

SMILES | Potency | activity change, negative = inhibition
Cc1cc(C)c2c(=O)n(CC(=O)NCCCN3CCN(c4ccccc4F)CC3)sc2n1 | inconclusive [inhibitor, full curve] | –
O=c1[nH]c2ccccc2nc1C(Cl)c1ccccc1 (stereo not drawn) | inconclusive [inhibitor, partial curve] | –
COc1cccc(-c2cc(=O)c3ccc(OC)cc3o2)c1 | inconclusive [inhibitor, partial curve] | –
CCn1c(SCC(=O)N2CCCCC2C)nc2ccsc2c1=O (stereo not drawn) | inconclusive [inhibitor, single point] | –
NC(=O)c1sc2nc(N3CCCCC3)c3c(c2c1N)CCCC3 | inconclusive [inhibitor, partial curve] | –
Brc1ccc(-c2nnc(-c3ccccc3Br)o2)cc1 | inconclusive [inhibitor, partial curve] | –
CCOC(=O)c1c(NC(=O)C2CC2)sc(C)c1CC | inconclusive [inhibitor, partial curve] | –
CCCCCCn1c(NCC)nc2c1c(=O)n(C)c(=O)n2C | – | inactive: -14.4%
O=C(Nc1ccc(-c2nc3cc(Cl)ccc3c(=O)o2)cc1)c1ccco1 | inconclusive [inhibitor, partial curve] | –
CCOCC(=O)NCc1ccc2c(c1)OCO2 | active: 12.6 µM | –
Nc1c(C(=O)NCc2ccccc2)c2nc3ccccc3nc2n1-c1ccc2c(c1)OCO2 | inconclusive [inhibitor, partial curve] | –
O=C(N/N=C/c1cn(-c2cccs2)nc1-c1ccccc1)c1ccccc1O | inconclusive [inhibitor, partial curve] | –
COc1ccc(-c2cc(C(F)(F)F)c3c(=O)n(-c4ccccc4)[nH]c3n2)cc1 | – | inactive: -16.8%
CCOC(=O)CCCSc1nc2sc(C)c(C)c2c(=O)[nH]1 | inconclusive [inhibitor, full curve] | –
Cc1noc(NS(=O)(=O)c2ccc(NC(=O)CSc3nnc4c(n3)[nH]c3ccccc34)cc2)c1C | – | inactive: -18.5%
C=CCNC(=S)Nc1ccc2nsnc2c1 | – | inactive: -11%
COC(=O)c1sc2nc(CN3CCOCC3)nc(N3CCOCC3)c2c1C | inconclusive [inhibitor, partial curve] | –
N#Cc1cc2ccccc2nc1SCc1ccccn1 | active: 25.1 µM | –
COc1ccc(N2CC(C(=O)Nc3nnc(SCC(=O)c4ccccc4)s3)CC2=O)cc1 (stereo not drawn) | inconclusive [inhibitor, partial curve, poor fit] | –
CC(=O)c1cccc(NC(=S)NC(=O)CC(C)(C)C)c1 | active: 15.8 µM | –
CCOC(=O)c1ccc(N2C(=O)C=CC2=O)cc1 | active: 1.41 µM | –
O=C(Nc1ccc(Cl)c(Cl)c1)N1CCSC1c1ccco1 (stereo not drawn) | active: 22.4 µM | –
CCC(C)NS(=O)(=O)c1ccc(OCC(=O)NCc2ccc3c(c2)OCO3)cc1 (stereo not drawn) | – | inactive: -2.41%
O=C1NC(=NCc2ccccc2)S/C1=C\c1ccccc1 | inconclusive [inhibitor, partial curve] | –
